{"source": "PubChem BioAssay AID485344", "about": "(National Center for Advancing Translational Sciences (NCATS), 2010)", "note": "About 6,900 (2%) of roughly 340,000 compounds were called active. Cut-off read from the data, not from the text of the source: active = inhibition above about 30%; inactive = below that, where a call was filed. Only a part is listed here, and it is no random draw. Entries without a call were filed so in the source."}
{"biological_target": "D(2) dopamine receptor (Homo sapiens) (UniProt P14416)", "sequence (P14416 whole entry, looked up)": "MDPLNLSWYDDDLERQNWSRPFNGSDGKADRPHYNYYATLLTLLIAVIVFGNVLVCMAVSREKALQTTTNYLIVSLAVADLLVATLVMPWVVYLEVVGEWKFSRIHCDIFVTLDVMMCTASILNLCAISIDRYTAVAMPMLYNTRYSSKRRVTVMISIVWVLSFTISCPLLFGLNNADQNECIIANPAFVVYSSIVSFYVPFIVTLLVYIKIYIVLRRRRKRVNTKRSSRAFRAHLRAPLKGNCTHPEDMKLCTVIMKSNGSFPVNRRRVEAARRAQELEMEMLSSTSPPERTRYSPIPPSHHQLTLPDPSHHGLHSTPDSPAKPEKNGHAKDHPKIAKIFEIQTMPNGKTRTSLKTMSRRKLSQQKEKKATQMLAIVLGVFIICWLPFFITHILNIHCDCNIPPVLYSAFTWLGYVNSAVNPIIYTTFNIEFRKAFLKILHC", "experiment": "HTS Assay for Allosteric Antagonists of the Human D2 Dopamine Receptor: Primary Screen for Antagonists; note: 0% is about no effect", "conditions": "HEK293 TREx D2 cells, calcium flux, dopamine EC80; at 10 µM; stronger effect = higher value", "procedure,_shortened": "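Calcium mobilization kinetics were recorded at 1 s intervals in tetracycline-induced HEK293 T-REx D2 cells, first for 180 s after compound addition and then 180 s after EC80 dopamine.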"}
{"molecule": "Clc1cccc(-n2ncc3c(Nc4ccc5c(c4)OCCO5)ncnc32)c1", "inhibition": "6.48%"}
{"molecule": "COc1ccc(N2CCN(C(=O)Cn3c(-c4cccs4)cc4ccccc43)CC2)cc1", "inhibition": "-9.93%"}
{"molecule": "CC(=O)N1CCc2cc(S(=O)(=O)NC(Cc3ccccc3)C(=O)Nc3ccc(C)cc3C)ccc21", "note": "(stereo not given)", "inhibition": "-23.9%"}
{"molecule": "O=C(CCCN1CCC(c2ccccc2)C1)c1ccc2c(c1)OCCO2", "note": "(stereo not given)", "inhibition": "active: 79.1%"}
{"molecule": "COc1ccc(NC(=O)CN2C(=O)C(c3ccc(C)cc3)=NC23CCCCCC3)cc1Cl", "inhibition": "-10.9%"}
{"molecule": "Cc1ccc(/C=C/c2nc3sc(C(=O)O)c(C)c3c(=O)[nH]2)cc1[N+](=O)[O-]", "inhibition": "active: 32.7%"}
{"molecule": "Cc1ccc(NC(=O)c2ccc(CNS(=O)(=O)c3ccc4c(c3)C(C)(C)C(=O)N4C)cc2)cc1", "inhibition": "3.94%"}
{"molecule": "COc1cccc(-c2nc(SCC(=O)NCC3CCCO3)c(-c3ccc(Cl)cc3)[nH]2)c1", "note": "(stereo not given)", "inhibition": "-11.7%"}
{"molecule": "CN(C)CCNC(=O)C(=O)NCC(c1cccnc1)N1CCN(c2ccccc2)CC1", "note": "(stereo not given)", "inhibition": "5.46%"}
{"molecule": "O=C(Cc1ccccc1)NCC(=O)N1CCCC1", "inhibition": "active: 34.6%"}
{"molecule": "CCCN(C(=O)Cn1ncc2c([nH]c3ccccc32)c1=O)c1ccc(F)cc1", "inhibition": "-10.2%"}
{"molecule": "COc1ccc(CCNC(=O)CCn2c(=O)c3ccccc3n(CC(=O)Nc3cc(Cl)ccc3C)c2=O)cc1OC", "inhibition": "-2.67%"}
{"molecule": "CCOC(=O)C1CCCN(C(=O)c2ccc3c(c2)N(Cc2ccccc2F)C(=O)c2ccccc2S3=O)C1", "note": "(stereo not given)", "inhibition": "-5.33%"}
{"molecule": "CC(=O)c1cccc(NC(=O)CCCSc2nc(-c3ccco3)cc(C(F)(F)F)n2)c1", "inhibition": "0.468%"}
{"molecule": "CCc1ccccc1NC(=O)Nc1cc(C(=O)NCc2ccccc2OC)ccc1N1CCCC1", "inhibition": "-4.94%"}
{"molecule": "CCn1cc2nc(SCc3cccc(C)c3)n(CCc3ccccc3)c(=O)c2n1", "inhibition": "-5.89%"}
{"molecule": "COc1ccc(C(=O)Nc2c3c(nn2C(C)(C)C)CS(=O)(=O)C3)cc1OC", "inhibition": "active: 35.1%"}
{"molecule": "Cc1nc2c(-c3ccccc3)c(C)nn2c(C)c1CCC(=O)NCc1ccccc1", "inhibition": "0.587%"}
{"molecule": "Cc1ccc(S(=O)(=O)n2nc(-c3ccco3)nc2NCc2ccc(N(C)C)cc2)cc1", "inhibition": "-18.1%"}
{"molecule": "CCc1ccc2oc(-c3ccc(C)c(NC(=O)c4ccc(C#N)cc4F)c3)nc2c1", "inhibition": "-1.86%"}
{"molecule": "CCOC(=O)c1ccc(NC(=O)CCC(=O)N2CCSc3ccccc32)cc1", "inhibition": "-5.65%"}
{"molecule": "O=C(Cn1cc(S(=O)(=O)c2ccccc2)c(=O)c2cc3c(cc21)OCO3)Nc1ccccc1", "inhibition": "11.4%"}
{"molecule": "Cn1cc(S(=O)(=O)N2CCCCC2)cc1C(=O)Nc1ccc(OC(F)(F)F)cc1", "inhibition": "17.6%"}
{"molecule": "O=C(NCCCc1ccccc1)c1nn(-c2ccccc2)nc1CO", "inhibition": "7.49%"}
{"molecule": "Cc1noc(-c2ccc(-c3noc(-c4cccc(Cl)c4)n3)cc2)n1", "inhibition": "-10.1%"}
{"molecule": "Cc1ccc(S(=O)(=O)C(CNC(=O)c2ccc(C(F)(F)F)cc2)c2ccco2)cc1", "note": "(stereo not given)", "inhibition": "24%"}
{"molecule": "CCc1ccc2occ(CC(=O)Nc3sc4c(c3C(=O)NCCOC)CCCC4)c2c1", "inhibition": "1.33%"}
{"molecule": "Cc1nc2nc(SCC(=O)NC3CCC(C)CC3)nn2c(C)c1Cc1ccccc1Cl", "note": "(stereo not given)", "inhibition": "-13.2%"}
{"molecule": "Cc1[nH]c2ccc(C(=O)NCCCN(C)C3CCCCC3)cc2c1C", "inhibition": "active: 34%"}
{"molecule": "COc1ccc(OC)c(NC(=O)c2c(NCc3ccc(N(C)C)cc3)sc3c2CCCC3)c1", "inhibition": "3.56%"}
{"molecule": "COc1ccc(NC(=O)c2oc3ccccc3c2NC(=O)C23CC4CC(CC(C4)C2)C3)cc1", "inhibition": "-8.52%"}
{"molecule": "O=C(CCCc1ccccc1)Nc1ccnn1C1CCN(Cc2ccccc2)CC1", "inhibition": "active: 40.7%"}
{"molecule": "COC(=O)[C@@]1(Cc2ccc(OC)cc2)[C@@H]2C(=CC(=O)[C@H]2CC(=O)C(=O)N2CCCC2)CN1C(=O)c1ccccc1", "inhibition": "active: 38%"}
{"molecule": "O=C(NCc1ccccc1Cl)c1ccc(NC(=O)N2CCSc3ccccc32)cc1", "inhibition": "1.16%"}
{"molecule": "COc1ccc(S(=O)(=O)N(CC(=O)Nc2ccc3c(c2)OCO3)c2ccc(C)cc2)cc1", "inhibition": "-15.8%"}
{"molecule": "Cc1ccc(OCc2cc(=O)n3c4c(sc3n2)CCCC4)cc1C", "inhibition": "16.9%"}
{"molecule": "COc1cc(OC)cc(C(=O)Nc2ccc3c(c2)n(C)c(=O)c(=O)n3C)c1", "inhibition": "-1.19%"}
{"molecule": "Cc1cc(NCc2ccc(Cl)cc2)n2cnnc2n1", "inhibition": "-15.9%"}
{"molecule": "CCc1ccc(NS(=O)(=O)c2c(-c3ccccc3)csc2C(=O)OC)cc1", "inhibition": "-2.85%"}
{"molecule": "O=C(Nc1nnc(S(=O)(=O)N2CCCCCC2)s1)c1ccccc1", "inhibition": "-4.05%"}
{"molecule": "COc1ccccc1N(CC(=O)Nc1cc(C)cc(C)c1)S(C)(=O)=O", "inhibition": "-2.1%"}
{"molecule": "Cc1cccc(-c2noc(-c3ccc(NCc4cccnc4)c([N+](=O)[O-])c3)n2)c1", "inhibition": "-28.6%"}
{"molecule": "O=C(Nc1ccc(F)cc1)c1ccc2c(c1)NC(=O)c1ccccc1S2", "inhibition": "3.83%"}
{"molecule": "CCc1cccc(NC(=O)Cn2ccn3nc(-c4ccc(OC)c(OC)c4)cc3c2=O)c1", "inhibition": "20.8%"}
{"molecule": "Nc1nonc1-c1nc2ccccc2n1CC(=O)Nc1cccc(Cl)c1Cl", "inhibition": "-3.63%"}
{"molecule": "CC1=C(C(=O)Nc2ccccc2)C(c2ccccn2)n2nc(SCc3ccccc3Cl)nc2N1", "note": "(stereo not given)", "inhibition": "-2.4%"}
{"molecule": "Cc1ccccc1NC(=O)Cn1cc(S(=O)(=O)N2CCCC2)c(S(=O)(=O)N2CCCC2)c1", "inhibition": "-11.5%"}
{"molecule": "CCOc1ccc(NC(=O)c2nnn(-c3ccc(F)c(Cl)c3)c2C)cc1", "inhibition": "-5.22%"}
{"molecule": "CCC(=O)Nc1cccc(OCc2cc(=O)n3cc(C)ccc3n2)c1", "inhibition": "0.0731%"}
{"molecule": "COC(=O)c1ccc(Oc2nc3c(c(=O)n(C)c(=O)n3C)n2Cc2ccc(Cl)c(Cl)c2)cc1", "inhibition": "9.11%"}
{"molecule": "Cc1nnc2ccc(-c3ccc(NS(C)(=O)=O)cc3)nn12", "inhibition": "active: 32.6%"}
{"molecule": "CC(=O)c1ccc(N2C(=O)Nc3ccccc3S2(=O)=O)cc1", "inhibition": "-13.8%"}
{"molecule": "CC(C)Sc1nc2sc3c(c2c(=O)n1-c1ccccc1)CCCC3", "inhibition": "-12%"}
{"molecule": "CCn1c(=O)c2ccccc2n(CC(=O)NC2CCCCC2)c1=O", "inhibition": "active: 41.7%"}
{"molecule": "Cc1ccc(CSc2cn(CCNC(=O)c3cccs3)c3ccccc23)cc1", "inhibition": "-7.6%"}
{"molecule": "O=C(Nc1ccc(F)c(Cl)c1)C1CCN(S(=O)(=O)c2ccc3c(c2)CCCN3C(=O)C2CCC2)CC1", "inhibition": "-16.2%"}
{"molecule": "Cc1ccc(N2CC(NC(=O)c3ccccc3Br)CC2=O)cc1", "note": "(stereo not given)", "inhibition": "-7.46%"}
{"molecule": "O=C(Cn1c(SCC(=O)Nc2ccc(F)cc2)nc2ccccc21)NCc1ccc(Cl)cc1", "inhibition": "14.1%"}
{"molecule": "Nc1ncc(S(=O)(=O)Nc2ccc(OC(F)(F)F)cc2)cn1", "inhibition": "0.858%"}
{"molecule": "CCOC(=O)c1ccccc1NC(=O)Cn1c(=O)n(-c2ccc(CC)cc2)c(=O)c2c(C)c(C(=O)N(C)C)sc21", "inhibition": "21%"}
{"molecule": "CCOc1ccccc1CNC(=O)c1ccc2c(c1)nc1n2CCC(C)C1", "note": "(stereo not given)", "inhibition": "11.8%"}
{"molecule": "C=CCOc1ccccc1CN1CCC(CO)(CCOc2ccccc2)CC1", "inhibition": "active: 63.8%"}
{"molecule": "CCN(CC)c1ccc(CNS(=O)(=O)c2cc3c(cc2C)NC(=O)CO3)cc1", "inhibition": "4.17%"}
{"molecule": "Cc1ccc(S(=O)(=O)N2CCOCC2)cc1C(=O)OC1CCOC1=O", "note": "(stereo not given)", "inhibition": "active: 40.9%"}
{"molecule": "COc1ccc(NC(=O)CSc2ncc3c(n2)-c2ccccc2N(C)S3(=O)=O)cc1Cl", "inhibition": "2.9%"}
{"molecule": "CCOc1ccc(NC(=O)Nc2c[nH]c(=O)[nH]c2=O)cc1", "inhibition": "-3.42%"}
{"molecule": "Cn1c(SCc2ccccc2Cl)nc(=O)c2c1NC(=O)CC2c1cc(F)ccc1F", "note": "(stereo not given)", "inhibition": "0.0538%"}
{"molecule": "CCOc1ccc(C(=O)NCCc2sc(-c3ccc(F)cc3)nc2C)cc1", "inhibition": "4.53%"}
{"molecule": "CCOC(=O)c1ccc(NC(=O)CN2C(=O)c3cccnc3Sc3ccccc32)cc1", "inhibition": "7.64%"}
{"molecule": "CC1(OC(=O)C2CCCC2)C(=O)C=C2C=C(c3ccsc3)N(c3ccccc3)C=C2C1=O", "note": "(stereo not given)", "inhibition": "active: 36%"}
{"molecule": "COc1ccc(Nc2ncc(C(=O)N3CCN(c4ccccc4OC)CC3)c3ccccc23)cc1", "inhibition": "16.1%"}
{"molecule": "Cc1ccccc1Cn1c(=O)n(CCCCCC(=O)NCc2ccc3c(c2)OCO3)c(=O)c2sccc21", "inhibition": "-8.7%"}
{"molecule": "O=C(Cn1ncc2c3ccccc3n(Cc3cccc(Cl)c3)c2c1=O)NCCC1=CCCCC1", "inhibition": "3.71%"}
{"molecule": "COc1ccc(-c2nc3cc(NC(=O)COc4ccc(C)c(C)c4)ccc3o2)cc1", "inhibition": "-2.27%"}
{"molecule": "Cc1cc(=O)c2cc(C(=O)Nc3cccc(C)c3C)ccc2[nH]1", "inhibition": "22.8%"}
{"molecule": "CCOc1ccc(CNC(=O)c2ccc(NC(=O)N3CCSc4ncccc43)cc2)cc1", "inhibition": "2.1%"}
{"molecule": "Cc1ccc(NC(=O)c2cccc(NC(=O)N3CCSc4ncccc43)c2)cc1F", "inhibition": "-9.45%"}
{"molecule": "CCCN1C(=O)c2oc3cc(C)cc(C)c3c(=O)c2C1c1ccc(F)cc1", "note": "(stereo not given)", "inhibition": "-19.9%"}
{"molecule": "CCN(CC)CCCNC(=O)CCc1c(C)nc2c(c1C)c(=O)n(C)c(=O)n2C", "inhibition": "-14.2%"}
{"molecule": "Cc1ccc(C)c(NC(=O)c2cnc3sc(N4CCOCC4)nn3c2=O)c1", "inhibition": "0.497%"}
{"molecule": "COc1ccc(-c2cc(C(F)(F)F)nc(SCC(=O)Nc3ccc(O)cc3)n2)cc1OC", "inhibition": "-1.17%"}
{"molecule": "Cc1c(NS(=O)(=O)c2ccc(Cl)cc2)c(=O)n(-c2ccccc2)n1C", "inhibition": "-1.79%"}
{"molecule": "Cc1nc2c(c(C)c1CCC(=O)Nc1ccc(F)cc1)c(=O)n(C)c(=O)n2C", "inhibition": "5.08%"}
{"molecule": "COc1ccccc1CCNC(=O)C(=O)NCC(c1cccnc1)N1CCN(c2ccccc2)CC1", "note": "(stereo not given)", "inhibition": "24.5%"}
{"molecule": "COc1ccc(C2=NN(CCC(=O)NCCc3ccccc3)C(=O)CC2)cc1", "inhibition": "3.45%"}
{"molecule": "CCc1cccc(-n2nnc(S(=O)(=O)c3ccc(OC)cc3)c2C)c1", "inhibition": "19.9%"}
{"molecule": "Cc1cccc(C)c1NC(=O)C1CCCN1S(=O)(=O)c1cccc2nsnc12", "note": "(stereo not given)", "inhibition": "12.6%"}
{"molecule": "COc1ccc(NC(=O)Cn2nnc(-c3nc(-c4ccncc4)no3)c2N)cc1OC", "inhibition": "-1.41%"}
{"molecule": "Cc1ccc(Cn2cc(CCC(=O)NCC(C)c3ccccc3)c3ccccc32)cc1", "note": "(stereo not given)", "inhibition": "3.65%"}
{"molecule": "COc1ccc2cc3cc(C(=O)NCCN4CCN(c5ccccc5F)CC4)oc3nc2c1", "inhibition": "active: 38%"}
{"molecule": "CCCNc1ncnc2c1c(-c1ccccc1)cn2-c1ccccc1", "inhibition": "-0.407%"}
{"molecule": "COc1ccc(-c2nsc(NC(=O)c3oc4ccccc4c3C)n2)cc1", "inhibition": "25.6%"}
{"molecule": "Cc1coc2c(C)c3oc(=O)c(CCC(=O)N4CCCCC4)c(C)c3cc12", "inhibition": "-16.5%"}
{"molecule": "O=C1CCC(C(=O)OC(C(=O)Nc2cc(Cl)cc(Cl)c2)c2ccccc2)=NN1", "note": "(stereo not given)", "inhibition": "active: 33.5%"}
{"molecule": "O=C(Cn1ccc2cc(S(=O)(=O)N3CCCCCC3)ccc21)NCc1cccc(Cl)c1", "inhibition": "-1.38%"}
